Test results reported in PubChem BioAssay AID686979 (National Center for Advancing Translational Sciences (NCATS), 2013).
In all, about 420,000 compounds went through this assay and about 50,000 (12%) were called active. The inconclusive results got no clear call from the source; some entries with a clear call stand among them for comparison. The call rests on the fitted dose curve; in most records, active means well fitted inhibition curve with a large enough effect; inconclusive means small, poorly fitted or top-dose-only effect; inactive means flat fitted curve, though single readings scatter. Potencies of inconclusive entries are left out as doubtful fits.

Assay: qHTS for Inhibitors of human tyrosyl-DNA phosphodiesterase 1 (TDP1): qHTS in cells in presence of CPT; further: nearly all actives have a fitted effect of over 55% in size
Conditions: chicken DT40 Tdp1-/-;hTDP1 cells + 20 nM CPT, ATP luminescence, 48 h; activity change, negative = growth inhibition: at 46.2 µM (top of the series) unless noted
Excerpt: Human tyrosyl-DNA phosphodiesterase 1 (TDP1) is a novel repair gene, and we propose to use it as a new target for anticancer drug development. TDP1 is not an essential protein, but under treatment with topoisomerase I poison (camptothecin: CPT), TDP1 works as a critical factor for cell survival. To directly identify novel TDP1 inhibitors active in a cellular environment, we have knocked-out the Tdp1 gene in chicken DT40 cells (Tdp1-/-) and generated a complemented counterpart cells that contains a stable transfection of the human TDP1 gene (Tdp1-/-;hTDP1 cells). For the primary screen, Tdp1-/-;hTDP1 cells will be exposed to small molecules in the presence or absence of CPT, and their growth kinetics will be evaluated after 48 hours by measuring ATP activity. […] The hit compounds will then be evaluated in the presence or absence of CPT using Tdp1-/- cells. […] In tertiary assays, biochemical gel-based assays will be used to assess whether the hit compounds specifically target TDP1. To this end, we have screened this cell line against the MLSMR in two primary screens. In one screen we add CPT and in the other we screen in the absence of CPT; this AID represents the screen where CPT was present. NIH Chemical Genomics Center [NCGC] NIH Molecular Libraries Probe Centers Network [MLPCN] MLPCN Grant: MH095538 Assay Submitter (PI): Yves Pommier, NCI
DT40-hTDP1 cells with 20 nM Camptothecin (add 20 microL of 1 mM CPT stock in 1 L of cell culture medium) were dispensed at 400 cells/5microL/well in tissue culture treated 1536-well white wall/solid bottom assay plates (Greiner Bio-One North America, NC, U.S.A.) using a Multidrop Combi 8 channel dispenser (Thermo Fisher, Waltham, MA, USA). 23 nL compounds and controls were transferred using the pin tool (Kalypsys, San Diego, CA, USA) to the assay plates. The assay plates were then incubated at 37 masculineC for a minimum 48 hr. Three microL of Cell Titer Glo solution was added to the plates and incubated at RT in dark for 30 min. Luminescence was read using ViewLux (Perkin Elmer) with 1 sec exposure slow speed, high gain and 2x binning.
On the % scale 0 is the no-effect control and ±100 the full control effect; potency means the concentration at half of the fitted maximal effect; tags describe the fitted curve by direction and shape.

Compound	Potency	activity change, negative = growth inhibition
O=c1c2ccccc2nc(COc2ccccc2)n1/N=C/c1ccc(O)c(O)c1	active: 14.6 µM	–
COC(=O)c1ccc(-n2nnnc2SCC(=O)N2CCCCC2)cc1	inactive	–
CC(C(=O)NCCc1ccccc1)N1c2cccc3cccc(c23)S1(=O)=O (stereo unspecified)	–	inconclusive: -34.4% [inhibitor]
O=C(NCC1COc2ccccc2O1)c1ccc(Cl)c(S(=O)(=O)N2CCCC2)c1 (stereo unspecified)	inconclusive [inhibitor, single point]	–
Cc1cccnc1-c1cccc2c1OC(CNC(=O)Cn1cncn1)C2 (stereo unspecified)	–	inactive: 4.95% [at 9.04 µM]
Cc1oc(-c2ccccc2NC(=O)c2ccsc2)nc1CN(C)Cc1ccc2c(c1)CCCN2C	inconclusive [inhibitor, single point]	–
COC(=O)c1c(-c2ccc(Cl)cc2)noc1N1CCN(c2ccc(C)cc2C)CC1	inconclusive [inhibitor, full curve, poor fit]	–
CC(C)c1ccc(NC(=O)C2CCCN(S(=O)(=O)c3cccc4cccnc34)C2)cc1 (stereo unspecified)	active: 16.4 µM	–
CCCCn1c(N)c(N(CC)C(=O)c2ccc(C#N)cc2)c(=O)[nH]c1=O	inactive	–
C=CCn1c(SCC(=O)NC2CCCC2)nc2ccccc21	inconclusive [inhibitor, partial curve]	–
C=CCN=C1N[C@@H](c2cccc(C(F)(F)F)c2)C(C(=O)OC)=C(C)N1CC	inconclusive [inhibitor, single point]	–
CCCCN(C)CCCNC(=O)C1CCN(c2nc3ccc(CC)cc3s2)CC1	active: 6.51 µM	–
COc1ccc(CNCC(O)COc2ccc3[nH]c(=O)ccc3c2)cc1OC (stereo unspecified)	inactive	–
CCOC(=O)Cc1ccc(NC(=O)N2CCOc3ccc(C)cc32)cc1	inconclusive [inhibitor, single point]	–
COc1cc(NS(=O)(=O)c2ccc(NC(=S)NC(=O)C3CCCC3)cc2)nc(OC)n1	–	inconclusive: -20.5% [inhibitor]
COc1ccc(OCC(O)CN(CC(O)COc2ccc(OC)cc2)c2cccc(O)c2)cc1 (stereo unspecified)	inconclusive [inhibitor, single point]	–
COc1ccc(OCc2cccc(C(=O)NN)c2)cc1	inconclusive [inhibitor, single point]	–
COc1ccc(CNCCc2ccccc2)cc1OCC(N)=O	inactive	–
CCc1ccc(NC(=O)C(=O)NNC(=O)c2cccs2)cc1	inconclusive [inhibitor, partial curve]	–
Cc1ccc(S(=O)(=O)CCC(=O)OCC(=O)N2c3ccccc3CC2C)cc1 (stereo unspecified)	inactive	–
CCOc1ccc(S(=O)(=O)Nc2cc(SCC(=O)O)c(O)c3ccccc23)cc1	active: 3.66 µM	–
Cc1ccc(S(=O)(=O)N2CCN(C(=O)c3cc4c(C)nn(-c5ccccc5C)c4s3)CC2)cc1	inconclusive [inhibitor, single point]	–
O=C(Nc1ccccc1)c1nnsc1S(=O)(=O)c1ccc(Cl)cc1	active: 4.61 µM	–

Compound	Potency	activity change, negative = growth inhibition
CCOC(=O)c1cc(S(=O)(=O)N2CCN(c3ccccc3)CC2)[nH]n1	inconclusive [inhibitor, partial curve]	–
COc1ccccc1CC(=O)NCCc1ccccc1	inactive	–
COC(=O)C1=C(O)/C(=C\c2ccc(CNS(=O)(=O)c3ccccc3)o2)N=C1C	inconclusive [inhibitor, single point]	–
O=C(CSc1ccc(-c2ccccn2)nn1)NCc1ccc(Cl)cc1	inconclusive [inhibitor, single point]	–
Cc1ccc2c(CN3CCN(S(=O)(=O)c4ccccc4C(F)(F)F)CC3)cc(=O)oc2c1	inconclusive [inhibitor, single point]	–
COc1ccc(CN2C(=NC(=O)C3CCCCC3)SC3CS(=O)(=O)CC32)cc1 (stereo unspecified)	inactive	–
C[C@@H](NC(=O)[C@@H]1Cc2ccccc2CN1C(=O)OC(C)(C)C)C(=O)NC1CCCCC1	inactive	–
N#Cc1cc2cc3c(cc2nc1SCC(=O)N1CCOCC1)OCO3	inactive	–
c1ccc(CNc2c3ccccc3nc3ccccc23)cc1	active: 13 µM	–
Cc1ccc2nc(N(Cc3cccnc3)C(=O)COc3ccccc3)sc2c1	inconclusive [inhibitor, single point]	–
CCOc1ccc(/C=N/NC(=O)c2ccccc2Cl)cc1CN1CC2CC(C1)c1cccc(=O)n1C2 (stereo unspecified)	inconclusive [inhibitor, single point]	–
Cc1ccc(OC(C)C(=O)Nc2nonc2-c2ccc(Br)cc2)cc1C (stereo unspecified)	inconclusive [inhibitor, single point]	–
COCCNc1ncnc2ccc(-c3c(C)noc3C)cc12	active: 11.6 µM	–
COc1ccc2[nH]c3c(c2c1)CCN1C(=O)N([C@@H](C)C(=O)NCc2ccccc2)C(=O)[C@]31C	inconclusive [inhibitor, single point]	–
COc1ccc(N(C(=O)C2CCCCC2)S(=O)(=O)c2cccc3cccnc23)cc1	inactive	–
CC(=O)CCc1oc2ccc(NC(C)=O)cc2c1-c1ccc(C)o1	inactive	–
CCc1nnc2c3ccccc3nc(Nc3ccc(C(C)=O)cc3)n12	inconclusive [inhibitor, single point]	–
COc1ccc(NC(=O)c2ccc3c(c2)N(C)CCS3)cc1	inconclusive [inhibitor, single point]	–
CCN(CC)CCN(C(=O)c1ccc(S(=O)(=O)N(C)C2CCCCC2)cc1)c1nc2ccc(OC)cc2s1	inconclusive [inhibitor, single point]	–
CCCOC(=O)CSc1nc(N)c(C#N)c(-c2ccco2)c1C#N	inactive	–
Fc1ccccc1-c1nc2nc3ccccc3nc2n1CC1CCCO1 (stereo unspecified)	inconclusive [inhibitor, single point]	–
CC(O)(CC(=O)CC(=O)c1ccccc1)c1ccccc1 (stereo unspecified)	inconclusive [inhibitor, single point]	–
CCOC(=O)Cc1csc(NC(=O)c2ccc(OC)c(OC)c2)n1	inconclusive [inhibitor, single point]	–
